# Data: the supplement of paper PMC8728848
# The list shows a part of the results.
# B1: PX9937B-bvu-524-33-524 (Bacteroides vulgatus) (protein)
# chain: GTAYWKNPDQFTAFNTGLHALLREKSYNFFLLGEPRADIYGDNPIGGEASQGMERLPFNTINKENVGISNYGDMYKIINQINQMIAKTTETTILTEATQNYYLGEAYGMRAYLYFHLLRSWGDVVLYLDYTEGQNLDLSNITKGVSPATEVMEQIKKDIQASENAFGSDYSFKLGRHFWSAAATQMLKGEAYLWSGRQMNGGNSDYTIAKNAFENVKKADVGLVTSSFKDIFSFENKKNKEMIFTIHNGKDEYEMWGGYYRMRLIPAQDKMVKIYCDENGNSFVGTPDAQLNGLTQLQVRREFYFKGFRNNDTRWTTSLKAVYKKDAQGVVSYFGPITYKFQGTMLEGGSTRSFLDDFPIYRYADCLLQLAMAKVLLGEDPTEEINAVRERAYGSKYFNEHKAEIAYPNDNDPEFYTDNKWMKPDNAGALEAILKERLREFMFEGKRWYDIRLLGWDYVHQYSSAEQSRLLWPIDAGTLTNNSALKQTPGYE
# Columns and labels:
# Assay in all cases: glycan array binding signal (z-score within array); higher = stronger binding
# Settings in all cases: glycan notation: IUPAC condensed, linker removed
# [1] = target: GalNAc(b1-4)GlcNAc(b1-2)Man
# Outline: (§1)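 The binding signal is a Z-score computed within each array and averaged over linkers. Arrays of the same protein sequence at different concentrations or buffers were also averaged together. Data originate from 3228 arrays in the Consortium for Functional Glycomics database, kept only where the protein sequence was available.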
# [2] = target: GalNAc(b1-4)GlcNAc(b1-2)Man(a1-3)[GalNAc(b1-4)GlcNAc(b1-2)Man(a1-6)]Man(b1-4)GlcNAc(b1-4)GlcNAc
# Outline: as §1
# [3] = target: GalNAc(b1-4)GlcNAc(b1-3)GalNAc(b1-4)GlcNAc
# Outline: as §1
# GalNAc(b1-4)GlcNAc6S = target: GalNAc(b1-4)GlcNAc6S
# Outline: as §1
# GalNAc(b1-6)GalNAc = target: GalNAc(b1-6)GalNAc
# Outline: as §1
# GalNAc3S(b1-4)GlcNAc = target: GalNAc3S(b1-4)GlcNAc
# Outline: as §1
# GalNAc3S(b1-4)GlcNAc3S = target: GalNAc3S(b1-4)GlcNAc3S
# Outline: as §1
# [4] = target: GalNAc3S(b1-4)[Fuc(a1-3)]GlcNAc
# Outline: as §1
# GalNAc4S6S(b1-4)GlcNAc = target: GalNAc4S6S(b1-4)GlcNAc
# Outline: as §1
# GalNAc6S(b1-4)GlcNAc = target: GalNAc6S(b1-4)GlcNAc
# Outline: as §1
# Glc(a1-4)Glc = target: Glc(a1-4)Glc
# Outline: as §1
# [5] = target: Glc(a1-4)Glc(a1-4)Glc(a1-4)Glc
# Outline: as §1
# Glc(a1-6)Glc(a1-6)Glc = target: Glc(a1-6)Glc(a1-6)Glc
# Outline: as §1
# [6] = target: Glc(a1-6)Glc(a1-6)Glc(a1-6)Glc
# Outline: as §1
# Glc(b1-4)Glc = target: Glc(b1-4)Glc
# Outline: as §1
# Glc(b1-6)Glc = target: Glc(b1-6)Glc
# Outline: as §1
# GlcA(b1-3)Gal = target: GlcA(b1-3)Gal
# Outline: as §1
# GlcA(b1-3)GlcNAc = target: GlcA(b1-3)GlcNAc
# Outline: as §1
# GlcA(b1-6)Gal = target: GlcA(b1-6)Gal
# Outline: as §1
# [7] = target: GlcA3S(b1-3)Gal(b1-4)GlcNAc(b1-2)Man
# Outline: as §1
# [8] = target: GlcA3S(b1-3)Gal(b1-4)GlcNAc(b1-3)Gal(b1-4)Glc
# Outline: as §1
# [9] = target: GlcNAc(a1-3)Gal(b1-4)GlcNAc
# Outline: as §1
# [10] = target: GlcNAc(a1-4)Gal(b1-3)GlcNAc
# Outline: as §1
# [11] = target: GlcNAc(a1-4)Gal(b1-4)GalNAc
# Outline: as §1
# [12] = target: GlcNAc(a1-4)Gal(b1-4)GlcNAc
# Outline: as §1
# [13] = target: GlcNAc(a1-4)Gal(b1-4)GlcNAc(b1-3)Gal(b1-4)Glc
# Outline: as §1
# [14] = target: GlcNAc(a1-4)Gal(b1-4)GlcNAc(b1-3)Gal(b1-4)GlcNAc
# Outline: as §1
# [15] = target: GlcNAc(a1-4)Gal(b1-4)GlcNAc(b1-3)Gal(b1-4)GlcNAc(b1-3)Gal(b1-4)GlcNAc
# Outline: as §1
# [16] = target: GlcNAc(a1-4)Gal(b1-4)GlcNAc(b1-3)Gal(b1-4)[Fuc(a1-3)]GlcNAc(b1-3)Gal(b1-4)[Fuc(a1-3)]GlcNAc
# Outline: as §1
# [17] = target: GlcNAc(a1-6)Gal(b1-4)GlcNAc
# Outline: as §1
# [18] = target: GlcNAc(b1-2)Gal(b1-3)GalNAc
# Outline: as §1
# [19] = target: GlcNAc(b1-2)Man(a1-3)[GlcNAc(b1-2)Man(a1-6)]Man(b1-4)GlcNAc(b1-4)GlcNAc
# Outline: as §1
# [20] = target: GlcNAc(b1-2)Man(a1-3)[GlcNAc(b1-2)Man(a1-6)]Man(b1-4)GlcNAc(b1-4)[Fuc(a1-6)]GlcNAc
# Outline: as §1
# [21] = target: GlcNAc(b1-2)Man(a1-3)[GlcNAc(b1-4)][GlcNAc(b1-2)Man(a1-6)]Man(b1-4)GlcNAc(b1-4)GlcNAc
# Outline: as §1
# [22] = target: GlcNAc(b1-2)Man(a1-3)[GlcNAc(b1-4)][GlcNAc(b1-2)Man(a1-6)]Man(b1-4)GlcNAc(b1-4)[Fuc(a1-6)]GlcNAc
# Outline: as §1
# [23] = target: GlcNAc(b1-2)[GlcNAc(b1-4)]Man(a1-3)[GlcNAc(b1-2)Man(a1-6)]Man(b1-4)GlcNAc(b1-4)GlcNAc
# Outline: as §1
# [24] = target: GlcNAc(b1-2)[GlcNAc(b1-4)]Man(a1-3)[GlcNAc(b1-4)][GlcNAc(b1-2)Man(a1-6)]Man(b1-4)GlcNAc(b1-4)GlcNAc
# Outline: as §1
binder,measurement,setting,value
B1,glycan array binding signal (z-score),[1],-0.127
same,glycan array binding signal (z-score),[2],-0.228
same,glycan array binding signal (z-score),[3],-0.144
same,glycan array binding signal (z-score),GalNAc(b1-4)GlcNAc6S,-0.323
same,glycan array binding signal (z-score),GalNAc(b1-6)GalNAc,-0.488
same,glycan array binding signal (z-score),GalNAc3S(b1-4)GlcNAc,-0.324
same,glycan array binding signal (z-score),GalNAc3S(b1-4)GlcNAc3S,-0.255
same,glycan array binding signal (z-score),[4],-0.225
same,glycan array binding signal (z-score),GalNAc4S6S(b1-4)GlcNAc,-0.239
same,glycan array binding signal (z-score),GalNAc6S(b1-4)GlcNAc,-0.358
same,glycan array binding signal (z-score),Glc(a1-4)Glc,-0.336
same,glycan array binding signal (z-score),[5],-0.382
same,glycan array binding signal (z-score),Glc(a1-6)Glc(a1-6)Glc,-0.007
same,glycan array binding signal (z-score),[6],-0.254
same,glycan array binding signal (z-score),Glc(b1-4)Glc,0.148
same,glycan array binding signal (z-score),Glc(b1-6)Glc,0.203
same,glycan array binding signal (z-score),GlcA(b1-3)Gal,0.249
same,glycan array binding signal (z-score),GlcA(b1-3)GlcNAc,-0.242
same,glycan array binding signal (z-score),GlcA(b1-6)Gal,-0.249
same,glycan array binding signal (z-score),[7],-0.269
same,glycan array binding signal (z-score),[8],-0.399
same,glycan array binding signal (z-score),[9],-0.395
same,glycan array binding signal (z-score),[10],-0.258
same,glycan array binding signal (z-score),[11],-0.453
same,glycan array binding signal (z-score),[12],-0.158
same,glycan array binding signal (z-score),[13],-0.179
same,glycan array binding signal (z-score),[14],-0.254
same,glycan array binding signal (z-score),[15],-0.272
same,glycan array binding signal (z-score),[16],0.453
same,glycan array binding signal (z-score),[17],-0.343
same,glycan array binding signal (z-score),[18],-0.133
same,glycan array binding signal (z-score),[19],-0.297
same,glycan array binding signal (z-score),[20],-0.373
same,glycan array binding signal (z-score),[21],-0.477
same,glycan array binding signal (z-score),[22],-0.1
same,glycan array binding signal (z-score),[23],-0.328
same,glycan array binding signal (z-score),[24],-0.346
